From the supplement of paper PMC4604168 (melanoma cell lines) come the findings set out here.

Some test systems named below: A101D; A2058; A375.
Holding throughout (experiment): cell count relative to DMSO control; melanoma cells; higher = more viable cells
Conditions in all cases: library dose: standard library concentration; 72 h

Some of the results follow. Many values rest on one well or one pass, so single values are uncertain.
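Note: cells treated in 1,536-well plates, then fixed and DAPI-stained, with nuclei counted from automated high-throughput microscope images.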

In the case of `Cc1ccc(NC(=O)c2cccc(N(C)C)c2)cc1NC(=O)c1ccc(O)cc1` + C[C@@H]1CCN(C(=O)CC#N)C[C@@H]1N(C)c1ncnc2[nH]ccc12 [CP690550] (first compound 10 µM, partner dose 5 µM), the cell count in the test on A101D came out at 92.6%; with A2058, 79.2%; with A375, 114%.

`NC(=O)c1ccc(N(C(N)=O)c2c(F)cccc2F)nc1-c1ccc(F)cc1F` + COc1cc(Nc2ncc(F)c(Nc3ccc4c(n3)NC(=O)C(C)(C)O4)n2)cc(OC)c1OC [Tamatinib] (first compound 2 µM, partner dose 2 µM): the cell count in the test with A101D worked out at 26.7%; with A2058, 82.9%; in the test on A375, 98.4%.

As for `NC(=O)c1ccc(N(C(N)=O)c2c(F)cccc2F)nc1-c1ccc(F)cc1F` + NC(=O)Nc1cc(-c2cccc(F)c2)sc1C(=O)N[C@H]1CCCNC1 [AZD7762] (first compound 2 µM, partner dose 0.1 µM), the cell count in the test with A101D was 59.9%; with A2058, 72.5%; in the test with A375 it was 78.4%.

Consider `CCCCCCCCc1ccc(CCC(N)(CO)CO)cc1` [fingolimod] + O=C(O)c1ccc2c(c1)nc(Nc1cccc(Cl)c1)c1ccncc12 [CX4945] (first compound 10 µM, partner dose 2 µM), for which the cell count with A101D was found to be 6.8%; in the test on A2058, 9.53%; with A375 it was 62.7%.

In the case of `NC(=O)c1ccc(N(C(N)=O)c2c(F)cccc2F)nc1-c1ccc(F)cc1F` + CN(c1ncccc1CNc1nc(Nc2ccc3c(c2)CC(=O)N3)ncc1C(F)(F)F)S(C)(=O)=O [PF562271] (first compound 2 µM, partner dose 0.4 µM), the cell count with A101D was 75.1%; in the test with A2058, 70.5%; in the test with A375 it was 95.5%.

For the compound `CCCCCCCCc1ccc(CCC(N)(CO)CO)cc1` [fingolimod] + CN(NC(=O)CC(=O)NN(C)C(=S)c1ccccc1)C(=S)c1ccccc1 [STA4783] (first compound 10 µM, partner dose 0.03 µM), the cell count is 3.04% with A101D, 4.61% in the test with A2058 and 15.3% in the test with A375.

On to `NC(=O)c1ccc(N(C(N)=O)c2c(F)cccc2F)nc1-c1ccc(F)cc1F` + CS(=O)(=O)CCNCc1ccc(-c2ccc3ncnc(Nc4ccc(OCc5cccc(F)c5)c(Cl)c4)c3c2)o1 [lapatinib] (first compound 2 µM, partner dose 4 µM), for which the cell count in the test with A101D was found to be 94.9%; in the test on A2058, 87%; in the test with A375, 108%.
